Source: PubChem BioAssay (NCI)
Several values for one entry are separate records, joined by “and”; a condition that tells them apart may be missing. Equal entries are not always repeated.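 Growth conditions: 96-well plates. Treatment: test compound, 48 hours, 5 concentrations. Analysis: linear interpolation between bracketing concentrations; unreached endpoints set to highest concentration. GI50 is the concentration that inhibits growth by half. TGI is the concentration that stops growth completely.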

These compounds were tested on NCI-H322M lung (assay: NCI anticancer screen, dose series, 48 h).

Point of comparison: `Cc1ccc(N2CCN(C3=C(Cl)C(=O)c4ncccc4C3=O)CC2)cc1`, GI50 8.7 µM. Against it:
- NC(N)=Nc1ccc(Oc2cccc(Nc3ccc(Br)c(C(F)(F)F)c3)c2)cc1 — 5.3-fold lower, 1.63 µM

Point of comparison: `Cc1ccc(N2CCN(C3=C(Cl)C(=O)c4ncccc4C3=O)CC2)cc1`, TGI 21 µM. Against it:
- NC(N)=Nc1ccc(Oc2cccc(Nc3ccc(Br)c(C(F)(F)F)c3)c2)cc1 — 6.8-fold lower, 3.07 µM
- COc1cc(C)c(-c2ccc(=O)c(OC)cc2C)c(OC)c1OC — higher, > 100 µM

`COc1cc(C)c(-c2ccc(=O)c(OC)cc2C)c(OC)c1OC` was tested, and the GI50 was > 100 µM and 59.6 µM.
